Results reported in PubChem BioAssay AID445 (National Center for Advancing Translational Sciences (NCATS), 2006).
The whole screen tested about 110,000 compounds, of which about 40 (0.04%) were called active. The inconclusive results got no clear call from the source; some entries with a clear call stand among them for comparison. Calls come from the whole dose curve; as a rule, active = well fitted curve in the direction sought with a large enough effect in the signal ratio (not every such curve was filed as active); inconclusive = small, poorly fitted or top-dose-only effect, or a change in a side signal; inactive = flat fitted curve, though single readings scatter; the % refers to the signal ratio. Potencies beside an inconclusive call are fits to weak or partial responses and may not hold up.

test: IkB Signaling; settings: ABC-DLBCL IkBa-CBG/CBR dual luciferase ratio (green luciferase fused to IkBa over red control in OCI-Ly3 lymphoma cells), 4 h; IkBa stabilization activation: at 57.1 µM (top of the series), scaled: untreated 0%, proteasome inhibitor 100% unless noted;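 for IkBa stabilization activation: 0% = basal untreated cells and 100% = reference inhibitor full response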
In short: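 In this assay, an IκBα–CBG68 fusion accumulates when IKK-driven degradation is blocked; native CBR normalizes for cell number. OCI-Ly3 cells were treated 4 h with compound and doxycycline, then green and red light read after Chroma-Glo addition.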
Potency is the fitted concentration of half-maximal effect.

Compound | IkBa stabilization activation | Potency
C[C@@]12C=CC(=O)C=C1CC[C@@H]1C2=CC[C@]2(C)[C@@H]1CC[C@H]2C(=O)CN1CCN(c2cc(N3CCCC3)nc(N3CCCC3)n2)CC1 | inactive: 9.56% | 
CN1c2cc(Cl)ccc2-c2nc(SCC(=O)Nc3ccc(F)cc3F)ncc2S1(=O)=O | inactive: 4.4% | 
CCOC(=O)N1CCc2c(sc(NCc3ccc(OCC)cc3)c2C(=O)Nc2ccc(OC)cc2OC)C1 | inconclusive: -0.597% [signal inhibitor] | 
O=C(NC1CCCC1)c1ccc(CSc2nc3ccncc3n2Cc2ccccc2F)cc1 | inconclusive: 2.98% [signal inhibitor] | 
O=C(Nc1cccc(Cl)c1N1CCCC1)c1cc2ccccc2o1 | inactive: 1.57% | 
COc1ccc(CNC(=O)COC(=O)c2ccc3c(c2)OCCO3)cc1 | inactive: 1.24% | 
O=C(Nc1ccccc1F)C(Cc1ccccc1)n1cccc1 (centres undefined) | inconclusive: -0.0871% [signal inhibitor] | 
Cc1cc(C)c(Nc2nn3c(=O)c4cc5c(cc4nc3s2)OCO5)c(C)c1 | inactive: 22.9% | 
CCc1ccc(-c2nc(CSCC(=O)N3CCN(c4ccccn4)CC3)c(C)o2)cc1 | inconclusive: -3.39% [signal inhibitor] | 
O=C(Nc1ccc2nc(SCC(=O)N3CCOCC3)sc2c1)c1ccc(F)cc1 | inconclusive: 2.98% [signal inhibitor] | 
Cc1ccc(SCc2[nH]nc3c2C(c2ccco2)C(C#N)=C(N)O3)cc1 (centres undefined) | inconclusive: 3.07% [signal inhibitor] | 
COc1cc(OC)cc(-c2nc3nc(C)c(CCC(=O)Nc4ccc(Cl)cc4)c(C)n3n2)c1 | inconclusive: 7.21% [signal inhibitor] | 
CCOC(=O)Cn1c(=O)oc2cc(S(=O)(=O)Nc3cc(OC)cc(OC)c3)ccc21 | inconclusive: 5.81% [signal inhibitor] | 
O=c1[nH]c2ccc(S(=O)(=O)Nc3ccc(-c4nnc5n4CCCCC5)cc3)cc2o1 | inconclusive: 12.4% [signal inhibitor] | 
O=C(NCc1cccs1)c1ccc(N2CCCCC2)nc1 |  | inconclusive: 15.8 µM [signal inhibitor, partial curve]
C/C=C/Cn1c(SC)nc2c1c(=O)[nH]c(=O)n2C | inconclusive: -0.416% [signal activator] | 
Cc1cccc(C(=O)Nc2cccc(C(=O)OCc3cc(=O)n4c5c(sc4n3)CCCC5)c2)c1 |  | inconclusive: 7.94 µM [signal inhibitor]
CCOCCOC(=O)C1=C(C)NC2=C(C(=O)CC(c3cccs3)C2)C1c1ccsc1 (centres undefined) | inconclusive: -1.01% [signal inhibitor] | 
COc1ccc(-n2nc3ccccc3n2)cc1 | inactive: -4.05% | 
O=C(CC1N=C2c3ccccc3N=C(SCC(=O)Nc3cccc(Cl)c3)N2C1=O)NCc1cccs1 (centres undefined) | inconclusive: 8.58% [signal inhibitor] | 
CC(=O)Nc1ccc(Nc2nc(C)nc3c2oc2ccccc23)cc1 | inactive: -0.566% | 
Cc1cc(C)cc(N(CC(=O)N2CCN(c3ccccc3)CC2)S(=O)(=O)c2c(C)noc2C)c1 | inconclusive: 2.24% [signal inhibitor] | 

Compound | IkBa stabilization activation | Potency
COc1cccc(CNC(=O)CSc2nc(=O)[nH]c3c2CCCC3)c1 | inactive: 2.15% | 
CCc1nc(NC(C)C)c2oc3ccccc3c2n1 | inactive: 11.1% | 
Oc1c(C(c2ccc(Cl)cc2Cl)N2CCOCC2)sc2nc(-c3ccco3)nn12 (centres undefined) | inconclusive: 4.42% [signal inhibitor] | 
O=C(NCc1ccc(F)cc1)c1ccc(CS(=O)(=O)c2ccc(Cl)cc2)o1 | inconclusive: 0.906% [signal inhibitor] | 
Cc1ccc2c(=O)cc(C(=O)Nc3nnc(CC(C)C)s3)oc2c1C | inconclusive: -1.24% [signal inhibitor] | 
CCOC(=O)c1sc(NC(=O)c2ccc(C)o2)nc1C | inconclusive: 11.9% [signal inhibitor] | 
Cn1c(C(=O)NCc2cccs2)cc2c(=O)n(C)c3ccccc3c21 | inactive: 0.121% | 
Nc1c(S(=O)(=O)c2cccs2)c2nc3ccccc3nc2n1Cc1cccs1 | inconclusive: 6.18% [signal inhibitor] | 
CS(=O)(=O)Nc1cccc(-c2nc(NCc3cccs3)c3ccccc3n2)c1 | inactive: -8.05% [at 11.4 µM, scaled: untreated 0%, proteasome inhibitor 100%] | 
CC(=O)c1c(C)nc2ccccc2c1N | inactive: 0.616% | 
O=C(CN(c1ccc(Cl)c(C(F)(F)F)c1)S(=O)(=O)c1ccccc1)N1CCc2ccccc2C1 | inconclusive: 6.59% [signal inhibitor] | 
Cc1ccc(NC(=O)c2sc(-n3nc(C)c(CCC(C)C)c3C)nc2C)cc1C | inconclusive: 0.814% [signal inhibitor] | 
CCc1ccccc1N(C)C(=O)C1CCCN(c2ncnc3onc(-c4ccc(F)cc4)c23)C1 (centres undefined) | inconclusive: 7.72% [signal inhibitor] | 
Cc1ccc(OCCn2c(CNc3cccc(C)c3)nc3ccccc32)cc1 |  | inconclusive: 3.98 µM [signal inhibitor]
COc1ccccc1CNc1cc(-c2ccccc2)nc2nncn12 | inconclusive: 2.77% [signal inhibitor] | 
COc1ccc(N2Cc3cccc(C(=O)Nc4ccc(C(C)C)cc4)c3C2=O)cc1 | inactive: -1.2% | 
CCCCOC(=O)c1ccc(NC(=O)c2cc(-c3ccccc3)on2)cc1 |  | inconclusive: 2.51 µM [signal inhibitor, full curve]
CC(=O)Nc1c(C)nn(-c2ccccc2)c1N1CCC(C(=O)Nc2ccccc2F)CC1 | inactive: -0.0497% | 
CC(C)c1ccc2occ(CC(=O)N(Cc3ccc(F)cc3)C3CCS(=O)(=O)C3)c2c1 (centres undefined) | inconclusive: 3.19% [signal inhibitor] | 
CC(=O)c1ccc(N2CCN(C(=O)Nc3ccc(C(C)C)cc3)CC2)cc1 | inconclusive: -0.976% [signal inhibitor] | 
Cc1cc(N)n2ncc(-c3ccccc3)c2n1 |  | inconclusive: 20 µM [signal inhibitor, single point]
Cn1c2ccccc2c2cnn(CC(=O)NCCCN3CCN(c4ccccc4F)CC3)c(=O)c21 | inconclusive: 1.23% [signal inhibitor] | 
